# Source: PMC12820563
# Some of the results follow. The list includes weakly bound sequences.
# Target: T1, MBP-FoxP3dN (UniProt Q99JB6)
# T1 sequence: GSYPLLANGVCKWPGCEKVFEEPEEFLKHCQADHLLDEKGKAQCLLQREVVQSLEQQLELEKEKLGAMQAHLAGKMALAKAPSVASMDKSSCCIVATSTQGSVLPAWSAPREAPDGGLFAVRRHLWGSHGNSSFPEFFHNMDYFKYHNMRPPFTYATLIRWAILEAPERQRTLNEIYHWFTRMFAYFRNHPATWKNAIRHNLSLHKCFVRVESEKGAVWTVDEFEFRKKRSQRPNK
# Experiment: PD-seq (MBP pull-down with sequencing)
# Settings: 20 mM Tris-HCl pH 7.5, 100 mM NaCl, 1.5 mM MgCl2, 0.4 uM protein, 0.1 uM dsDNA library, 30 min, room temperature, amylose pull-down; high values mean tight binding; double strand, one strand shown
row,Sequence,binding signal (RPM ratio (pull-down/input))
1,GATGATTGTTCTCCCAGCTGATGAATTGGGGTCATCGAGTAAACAAATTTTCCTAATCTTTCTGTTCAAGCGCCATCTAC,0.638
2,GATGATTGTTCTCCCAGCTGATGAATTGCGTCTTTCGAGTAAACAAATTTTCCTAATCTTTCTGTTCAAGCGCCATCTAC,1.6
3,GATGATTGTTCTCCCAGCTGATGAATTCTTCGTATCGAGTAAACAAATTTTCCTAATCTTTCTGTTCAAGCGCCATCTAC,0.341
4,GATGATTGTTCTCCCAGCTGATGAATTCAAACGCTCGAGTAAACAAATTTTCCTAATCTTTCTGTTCAAGCGCCATCTAC,0.369
5,GATGATTGTTCTCCCAGCTGATGAATTGGGTGCTTCGAGTAAACAAATTTTCCTAATCTTTCTGTTCAAGCGCCATCTAC,0.629
6,GATGATTGTTCTCCCAGCTGATGAATTTAACTCATCGAGTAAACAAATTTTCCTAATCTTTCTGTTCAAGCGCCATCTAC,0.444
7,GATGATTGTTCTCCCAGCTGATGAATTAGTCCTATCGAGTAAACAAATTTTCCTAATCTTTCTGTTCAAGCGCCATCTAC,0.552
8,GATGATTGTTCTCCCAGCTGATGAATTAAGCGACTCGAGTAAACAAATTTTCCTAATCTTTCTGTTCAAGCGCCATCTAC,2.91
9,GATGATTGTTCTCCCAGCTGATGAATTACTTTTCTCGAGTAAACAAATTTTCCTAATCTTTCTGTTCAAGCGCCATCTAC,0.544
10,GATGATTGTTCTCCCAGCTGATGAATTTAAACGATCGAGTAAACAAATTTTCCTAATCTTTCTGTTCAAGCGCCATCTAC,0.251
11,GATGATTGTTCTCCCAGCTGATGAATTCGCGATGTCGAGTAAACAAATTTTCCTAATCTTTCTGTTCAAGCGCCATCTAC,0.585
12,GATGATTGTTCTCCCAGCTGATGAATTCTCCATCTCGAGTAAACAAATTTTCCTAATCTTTCTGTTCAAGCGCCATCTAC,0.276
13,GATGATTGTTCTCCCAGCTGATGAATTTACCAGCTCGAGTAAACAAATTTTCCTAATCTTTCTGTTCAAGCGCCATCTAC,0.349
14,GATGATTGTTCTCCCAGCTGATGAATTTCTCCACTCGAGTAAACAAATTTTCCTAATCTTTCTGTTCAAGCGCCATCTAC,0.272
15,GATGATTGTTCTCCCAGCTGATGAATTCCCTGGCTCGAGTAAACAAATTTTCCTAATCTTTCTGTTCAAGCGCCATCTAC,0.215
16,GATGATTGTTCTCCCAGCTGATGAATTCCTTAACTCGAGTAAACAAATTTTCCTAATCTTTCTGTTCAAGCGCCATCTAC,0.222
17,GATGATTGTTCTCCCAGCTGATGAATTGGAACAATCGAGTAAACAAATTTTCCTAATCTTTCTGTTCAAGCGCCATCTAC,0.385
18,GATGATTGTTCTCCCAGCTGATGAATTCCGCAGTTCGAGTAAACAAATTTTCCTAATCTTTCTGTTCAAGCGCCATCTAC,1.27
19,GATGATTGTTCTCCCAGCTGATGAATTCTCTAAATCGAGTAAACAAATTTTCCTAATCTTTCTGTTCAAGCGCCATCTAC,0.219
20,GATGATTGTTCTCCCAGCTGATGAATTGAGTCGGTCGAGTAAACAAATTTTCCTAATCTTTCTGTTCAAGCGCCATCTAC,0.295
21,GATGATTGTTCTCCCAGCTGATGAATTCCCACAGTCGAGTAAACAAATTTTCCTAATCTTTCTGTTCAAGCGCCATCTAC,0.243

row,Sequence,binding signal (RPM ratio (pull-down/input))
1,GATGATTGTTCTCCCAGCTGATGAATTTAACCCATCGAGTAAACAAATTTTCCTAATCTTTCTGTTCAAGCGCCATCTAC,0.3
2,GATGATTGTTCTCCCAGCTGATGAATTTTAAATCTCGAGTAAACAAATTTTCCTAATCTTTCTGTTCAAGCGCCATCTAC,0.301
3,GATGATTGTTCTCCCAGCTGATGAATTGGGCTTATCGAGTAAACAAATTTTCCTAATCTTTCTGTTCAAGCGCCATCTAC,1.04
4,GATGATTGTTCTCCCAGCTGATGAATTAGATGTTTCGAGTAAACAAATTTTCCTAATCTTTCTGTTCAAGCGCCATCTAC,2.73
5,GATGATTGTTCTCCCAGCTGATGAATTGAGTATATCGAGTAAACAAATTTTCCTAATCTTTCTGTTCAAGCGCCATCTAC,1.7
6,GATGATTGTTCTCCCAGCTGATGAATTCAATGCATCGAGTAAACAAATTTTCCTAATCTTTCTGTTCAAGCGCCATCTAC,1.48
7,GATGATTGTTCTCCCAGCTGATGAATTAAAAGCGTCGAGTAAACAAATTTTCCTAATCTTTCTGTTCAAGCGCCATCTAC,0.552
8,GATGATTGTTCTCCCAGCTGATGAATTGGCTCGCTCGAGTAAACAAATTTTCCTAATCTTTCTGTTCAAGCGCCATCTAC,0.261
9,GATGATTGTTCTCCCAGCTGATGAATTGGTCATCTCGAGTAAACAAATTTTCCTAATCTTTCTGTTCAAGCGCCATCTAC,0.89
10,GATGATTGTTCTCCCAGCTGATGAATTCGTTACTTCGAGTAAACAAATTTTCCTAATCTTTCTGTTCAAGCGCCATCTAC,0.718
11,GATGATTGTTCTCCCAGCTGATGAATTGAAATAGTCGAGTAAACAAATTTTCCTAATCTTTCTGTTCAAGCGCCATCTAC,0.308
12,GATGATTGTTCTCCCAGCTGATGAATTCTTAATCTCGAGTAAACAAATTTTCCTAATCTTTCTGTTCAAGCGCCATCTAC,0.28
13,GATGATTGTTCTCCCAGCTGATGAATTCAACGATTCGAGTAAACAAATTTTCCTAATCTTTCTGTTCAAGCGCCATCTAC,0.338
14,GATGATTGTTCTCCCAGCTGATGAATTCCAGGGTTCGAGTAAACAAATTTTCCTAATCTTTCTGTTCAAGCGCCATCTAC,0.235
15,GATGATTGTTCTCCCAGCTGATGAATTCCTCGAATCGAGTAAACAAATTTTCCTAATCTTTCTGTTCAAGCGCCATCTAC,0.197
16,GATGATTGTTCTCCCAGCTGATGAATTATCACGATCGAGTAAACAAATTTTCCTAATCTTTCTGTTCAAGCGCCATCTAC,0.291
17,GATGATTGTTCTCCCAGCTGATGAATTTCTGTACTCGAGTAAACAAATTTTCCTAATCTTTCTGTTCAAGCGCCATCTAC,0.473
18,GATGATTGTTCTCCCAGCTGATGAATTCCAAATTTCGAGTAAACAAATTTTCCTAATCTTTCTGTTCAAGCGCCATCTAC,0.283
19,GATGATTGTTCTCCCAGCTGATGAATTGGGCAAGTCGAGTAAACAAATTTTCCTAATCTTTCTGTTCAAGCGCCATCTAC,1.04
20,GATGATTGTTCTCCCAGCTGATGAATTATGGTAGTCGAGTAAACAAATTTTCCTAATCTTTCTGTTCAAGCGCCATCTAC,0.703
21,GATGATTGTTCTCCCAGCTGATGAATTTACCAGGTCGAGTAAACAAATTTTCCTAATCTTTCTGTTCAAGCGCCATCTAC,0.315

row,Sequence,binding signal (RPM ratio (pull-down/input))
1,GATGATTGTTCTCCCAGCTGATGAATTCTGTCCTTCGAGTAAACAAATTTTCCTAATCTTTCTGTTCAAGCGCCATCTAC,0.999
2,GATGATTGTTCTCCCAGCTGATGAATTTAGTAGATCGAGTAAACAAATTTTCCTAATCTTTCTGTTCAAGCGCCATCTAC,0.483
3,GATGATTGTTCTCCCAGCTGATGAATTGCCGAGATCGAGTAAACAAATTTTCCTAATCTTTCTGTTCAAGCGCCATCTAC,0.367
4,GATGATTGTTCTCCCAGCTGATGAATTGCTCTCCTCGAGTAAACAAATTTTCCTAATCTTTCTGTTCAAGCGCCATCTAC,0.424
5,GATGATTGTTCTCCCAGCTGATGAATTTTGGAGCTCGAGTAAACAAATTTTCCTAATCTTTCTGTTCAAGCGCCATCTAC,0.219
6,GATGATTGTTCTCCCAGCTGATGAATTACGAACATCGAGTAAACAAATTTTCCTAATCTTTCTGTTCAAGCGCCATCTAC,0.543
7,GATGATTGTTCTCCCAGCTGATGAATTGTAATCGTCGAGTAAACAAATTTTCCTAATCTTTCTGTTCAAGCGCCATCTAC,0.983
8,GATGATTGTTCTCCCAGCTGATGAATTCTACGACTCGAGTAAACAAATTTTCCTAATCTTTCTGTTCAAGCGCCATCTAC,0.299
9,GATGATTGTTCTCCCAGCTGATGAATTTTCGGAGTCGAGTAAACAAATTTTCCTAATCTTTCTGTTCAAGCGCCATCTAC,0.22
10,GATGATTGTTCTCCCAGCTGATGAATTCTCGAATTCGAGTAAACAAATTTTCCTAATCTTTCTGTTCAAGCGCCATCTAC,0.614
11,GATGATTGTTCTCCCAGCTGATGAATTGTCTCGCTCGAGTAAACAAATTTTCCTAATCTTTCTGTTCAAGCGCCATCTAC,0.359
12,GATGATTGTTCTCCCAGCTGATGAATTACAAACATCGAGTAAACAAATTTTCCTAATCTTTCTGTTCAAGCGCCATCTAC,3.56
13,GATGATTGTTCTCCCAGCTGATGAATTGTAGTGGTCGAGTAAACAAATTTTCCTAATCTTTCTGTTCAAGCGCCATCTAC,1.04
14,GATGATTGTTCTCCCAGCTGATGAATTTTTATCATCGAGTAAACAAATTTTCCTAATCTTTCTGTTCAAGCGCCATCTAC,0.467
15,GATGATTGTTCTCCCAGCTGATGAATTCGGAGCTTCGAGTAAACAAATTTTCCTAATCTTTCTGTTCAAGCGCCATCTAC,0.283
16,GATGATTGTTCTCCCAGCTGATGAATTACCACGTTCGAGTAAACAAATTTTCCTAATCTTTCTGTTCAAGCGCCATCTAC,0.39
17,GATGATTGTTCTCCCAGCTGATGAATTCCTAGTCTCGAGTAAACAAATTTTCCTAATCTTTCTGTTCAAGCGCCATCTAC,0.258
18,GATGATTGTTCTCCCAGCTGATGAATTGTCTAGATCGAGTAAACAAATTTTCCTAATCTTTCTGTTCAAGCGCCATCTAC,0.308
19,GATGATTGTTCTCCCAGCTGATGAATTGTAGATTTCGAGTAAACAAATTTTCCTAATCTTTCTGTTCAAGCGCCATCTAC,0.564
20,GATGATTGTTCTCCCAGCTGATGAATTTCGGCTTTCGAGTAAACAAATTTTCCTAATCTTTCTGTTCAAGCGCCATCTAC,1.1
21,GATGATTGTTCTCCCAGCTGATGAATTCGTTGGTTCGAGTAAACAAATTTTCCTAATCTTTCTGTTCAAGCGCCATCTAC,3.75
